Data on 26 compounds can be found in the antibiotic and cytotoxicity screens of Wong et al. (2023).

Each structure is given as a SMILES string. The list shows a part of the results.

Experiment [1] concerns HSkMC (human skeletal muscle cells). The experiment in a line: cytotoxicity call (relative viability < 0.9). As to conditions: 10 µM.
For experiment [2], the system named is HepG2. The experiment in a line: cytotoxicity call (relative viability < 0.9). Particulars: 10 µM.
In experiment [3] the test system is S. aureus RN4220. In words: growth inhibition call (relative growth <= 0.2). Particulars: 50 µM.

Turning to `C=CC[C@@H](CC(=O)N(CCO)Cc1ccccc1)C(=O)NCCOC(=O)[C@@H](CC=C)CC(=O)OC(C)(C)C`, the cytotoxicity call in experiment [1] and in experiment [2] was “inactive” in each case. The growth inhibition call in experiment [3] was “inactive”.
Consider `C[C@@H]1CN([C@@H](C)CO)C(=O)Cc2cc(NC(=O)Cc3ccccc3)ccc2O[C@@H]1CN(C)S(=O)(=O)c1cccs1`, for which the cytotoxicity call in experiment [1] was “inactive”. In experiment [2], the cytotoxicity call is “active”. For the same compound, the growth inhibition call in experiment [3] is “inactive”.
Consider `C[C@@H]1CCCCO[C@@H](CN(C)Cc2ccncc2)[C@@H](C)CN([C@@H](C)CO)C(=O)c2cc(NS(C)(=O)=O)ccc2O1`, for which the cytotoxicity call in experiment [1] and in experiment [2] was “inactive” each time. The growth inhibition call in experiment [3] is “inactive”.
For `COc1cccc(CNC(=O)C[C@@H]2C=C[C@@H](NC(=O)C3CCOCC3)[C@H](CO)O2)c1`, the cytotoxicity call in experiment [1] and in experiment [2] was “inactive” throughout. For the same compound, in experiment [3], the growth inhibition call is “inactive”.
With `COCC(=O)N1C[C@H](C)[C@@H](OC)CN(C)C(=O)c2ccc(NC(=O)Nc3ccccc3)cc2OC[C@H]1C`, the cytotoxicity call in experiment [1] and in experiment [2] was “inactive” throughout. Further, the growth inhibition call in experiment [3] is “inactive”.
For `Cc1noc(C)c1NC(=O)Nc1ccc2c(c1)C(=O)N([C@H](C)CO)C[C@@H](C)[C@H](CN(C)S(=O)(=O)c1cccs1)OCCCC[C@@H](C)O2`, the cytotoxicity call in experiment [1] and in experiment [2] was “inactive” in each case. Further, the growth inhibition call in experiment [3] was “inactive”.
In the case of `CC(C)[Si](OCC[C@H]1O[C@]2(C(=O)N(Cc3ccccc3)c3ccccc32)[C@@H](C)[C@@H]1[Si](C)(C)O)(C(C)C)C(C)C`, the cytotoxicity call in experiment [1] and in experiment [2] was “inactive” in each case. Moreover, the growth inhibition call in experiment [3] was “inactive”.
With `C[C@@H]1CN([C@H](C)CO)C(=O)c2cc(NC(=O)CCC(F)(F)F)ccc2O[C@@H]1CN(C)Cc1ccc(C(F)(F)F)cc1`, the cytotoxicity call in experiment [1] and in experiment [2] was “inactive” in each case. Further, the growth inhibition call in experiment [3] is “inactive”.
For the compound `N#CCC(=O)NN`, the cytotoxicity call in experiment [1] and in experiment [2] was “inactive” in each case. The growth inhibition call in experiment [3] was “inactive”.
Regarding `COCC(=O)N1C[C@@H](C)[C@H](OC)CN(C)C(=O)c2cc(NC(=O)Nc3cccc(F)c3)ccc2OC[C@@H]1C`, the cytotoxicity call in experiment [1] and in experiment [2] was “inactive” in each case. In addition, the growth inhibition call in experiment [3] is “inactive”.
For the compound `C[C@@H]1CN([C@@H](C)CO)C(=O)c2cc(NC(=O)Cn3cnnn3)ccc2O[C@@H]1CN(C)C(=O)Nc1ccc(C(F)(F)F)cc1`, the cytotoxicity call in experiment [1] and in experiment [2] was “inactive” in each case. In addition, the growth inhibition call in experiment [3] is “inactive”.
As to `COCCN1C[C@H]2[C@@H](OC)CCN(S(=O)(=O)c3cn(C)cn3)[C@H]2C1`, the cytotoxicity call in experiment [1] and in experiment [2] was “inactive” in each case. For the same compound, the growth inhibition call in experiment [3] is “inactive”.
As to `NS(=O)(=O)C#Cc1ccccc1`, the cytotoxicity call in experiment [1] and in experiment [2] was “active” in each case. Besides, the growth inhibition call in experiment [3] was “inactive”.
Turning to `C[C@@H]1CN([C@@H](C)CO)C(=O)c2cc(N(C)C)ccc2O[C@H]1CN(C)S(=O)(=O)c1ccc(Cl)cc1`, the cytotoxicity call in experiment [1] and in experiment [2] was “inactive” in each case. Moreover, in experiment [3], the growth inhibition call was “inactive”.
As for `CC/N=C1\S[C@H](C(N)=O)CC(=O)N1CC`, the cytotoxicity call in experiment [1] and in experiment [2] was “inactive” each time. Also, the growth inhibition call in experiment [3] was “inactive”.
Take `CC1(C)SC2C(NC(=O)C(C(=O)[O-])c3ccsc3)C(=O)N2C1C(=O)[O-].[Na+].[Na+]` (stereo not drawn): the cytotoxicity call in experiment [1] and in experiment [2] was “inactive” in each case. Also, the growth inhibition call in experiment [3] is “inactive”.
Consider `CS(=O)(=O)N1[C@@H]2c3cccc(=O)n3C[C@H]1[C@H](CO)[C@H]2C(=O)NCc1ccccc1`, for which the cytotoxicity call in experiment [1] and in experiment [2] was “inactive” in each case. Also, the growth inhibition call in experiment [3] was “inactive”.
On to `C=CCNC(=O)[C@@H]1[C@H]2C(=O)O[C@H](c3ccccc3)[C@H](c3ccccc3)N2[C@H](c2ccccc2OCCO)[C@@]12C(=O)Nc1ccc(C#CC3=CCCCC3)cc12`, for which the cytotoxicity call in experiment [1] was “active”. Besides, the cytotoxicity call in experiment [2] was “inactive”. For the same compound, the growth inhibition call in experiment [3] is “inactive”.
For the compound `C[C@H](CO)N1C[C@H](C)[C@@H](CN(C)C(=O)C2CCOCC2)Oc2ncc(/C=C/c3ccccc3)cc2C1=O`, the cytotoxicity call in experiment [1] and in experiment [2] was “inactive” each time. In experiment [3], the growth inhibition call is “inactive”.
For `C[C@H](CO)N1C[C@H](C)[C@H](CN(C)S(=O)(=O)c2cn(C)cn2)Oc2ccc(NC(=O)Cn3cnnn3)cc2C1=O`, the cytotoxicity call in experiment [1] and in experiment [2] was “inactive” in each case. The growth inhibition call in experiment [3] was “inactive”.
On to `C[C@@H]1CCCCO[C@@H](CN(C)C(=O)Nc2ccc3c(c2)OCO3)[C@@H](C)CN([C@H](C)CO)C(=O)c2cc(NC(=O)Nc3ccc4c(c3)OCO4)ccc2O1`, for which the cytotoxicity call in experiment [1] and in experiment [2] was “inactive” in each case. Also, the growth inhibition call in experiment [3] is “inactive”.
For the compound `Cc1noc(C)c1NC(=O)Nc1ccc2c(c1)C(=O)N([C@H](C)CO)C[C@@H](C)[C@@H](CN(C)S(C)(=O)=O)O2`, the cytotoxicity call in experiment [1] and in experiment [2] was “inactive” each time. The growth inhibition call in experiment [3] was “inactive”.
In the case of `C[C@@H]1CN([C@H](C)CO)C(=O)c2cc(NC(=O)CCC(F)(F)F)ccc2O[C@@H]1CN(C)Cc1ccc(Oc2ccccc2)cc1`, the cytotoxicity call in experiment [1] and in experiment [2] was “inactive” throughout. The growth inhibition call in experiment [3] is “inactive”.
`C[C@H]1CN([C@@H](C)CO)C(=O)c2cc(NS(=O)(=O)c3cccs3)ccc2O[C@@H]1CN(C)S(C)(=O)=O`: the cytotoxicity call in experiment [1] and in experiment [2] was “inactive” throughout. For the same compound, in experiment [3], the growth inhibition call was “inactive”.
On to `CC(C)NC(=O)Nc1ccc2c(c1)CC(=O)N([C@H](C)CO)C[C@@H](C)[C@@H](CN(C)S(=O)(=O)c1ccc(F)cc1)O2`, for which the cytotoxicity call in experiment [1] and in experiment [2] was “inactive” throughout. Besides, the growth inhibition call in experiment [3] was “inactive”.
`CN(C)CC(=O)N1CC(=O)N2[C@H](CO)[C@@H](c3ccc(C#Cc4cccnc4)cc3)[C@@H]2C1`: the cytotoxicity call in experiment [1] and in experiment [2] was “inactive” each time. The growth inhibition call in experiment [3] was “inactive”.
